The list shows a part of the results.
What was measured:
Assay in all cases: glycan array binding signal (z-score within array); higher = stronger binding
Conditions in all cases: glycan notation: IUPAC condensed, linker removed
Gal6S(b1-4)Glc6S = target: Gal6S(b1-4)Glc6S
In short: (§1)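 The Consortium for Functional Glycomics database supplied 3228 glycan arrays, of which those lacking an available protein sequence were dropped. The binding signal, a within-array Z-score, was averaged across arrays of the same protein sequence and across linkers. Negative scores can be read as non-binding.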

Gal6S(b1-4)GlcNAc = target: Gal6S(b1-4)GlcNAc
In short: as §1

Gal6S(b1-4)GlcNAc6S = target: Gal6S(b1-4)GlcNAc6S
In short: as §1

GalNAc(a1-3)Gal = target: GalNAc(a1-3)Gal
In short: as §1

GalNAc(a1-3)GalNAc = target: GalNAc(a1-3)GalNAc
In short: as §1

[1] = target: GalNAc(a1-3)GalNAc(b1-3)Gal(a1-4)Gal(b1-4)Glc
In short: as §1

[2] = target: GalNAc(a1-3)GalNAc(b1-3)Gal(a1-4)Gal(b1-4)GlcNAc
In short: as §1

GalNAc(b1-3)Gal = target: GalNAc(b1-3)Gal
In short: as §1

[3] = target: GalNAc(b1-3)Gal(a1-4)Gal(b1-4)GlcNAc
In short: as §1

[4] = target: GalNAc(b1-3)Gal(a1-4)Gal(b1-4)GlcNAc(b1-3)Gal(b1-4)Glc
In short: as §1

[5] = target: GalNAc(b1-3)Gal(a1-6)Gal(b1-4)Glc
In short: as §1

GalNAc(b1-3)GalNAc = target: GalNAc(b1-3)GalNAc
In short: as §1

GalNAc(b1-4)Gal(b1-4)Glc = target: GalNAc(b1-4)Gal(b1-4)Glc
In short: as §1

GalNAc(b1-4)GlcNAc = target: GalNAc(b1-4)GlcNAc
In short: as §1

[6] = target: GalNAc(b1-4)GlcNAc(b1-2)Man(a1-3)[GalNAc(b1-4)GlcNAc(b1-2)Man(a1-6)]Man(b1-4)GlcNAc(b1-4)GlcNAc
In short: as §1

GalNAc(b1-6)GalNAc = target: GalNAc(b1-6)GalNAc
In short: as §1

Glc(a1-4)Glc = target: Glc(a1-4)Glc
In short: as §1

[7] = target: Glc(a1-4)Glc(a1-4)Glc(a1-4)Glc
In short: as §1

Glc(a1-6)Glc(a1-6)Glc = target: Glc(a1-6)Glc(a1-6)Glc
In short: as §1

[8] = target: Glc(a1-6)Glc(a1-6)Glc(a1-6)Glc
In short: as §1

Glc(b1-4)Glc = target: Glc(b1-4)Glc
In short: as §1

Glc(b1-6)Glc = target: Glc(b1-6)Glc
In short: as §1

GlcA(b1-3)Gal = target: GlcA(b1-3)Gal
In short: as §1

GlcA(b1-3)GlcNAc = target: GlcA(b1-3)GlcNAc
In short: as §1

GlcA(b1-6)Gal = target: GlcA(b1-6)Gal
In short: as §1

[9] = target: GlcNAc(a1-3)Gal(b1-4)GlcNAc
In short: as §1

[10] = target: GlcNAc(a1-4)Gal(b1-3)GlcNAc
In short: as §1

[11] = target: GlcNAc(a1-4)Gal(b1-4)GalNAc
In short: as §1

[12] = target: GlcNAc(a1-4)Gal(b1-4)GlcNAc
In short: as §1

[13] = target: GlcNAc(a1-4)Gal(b1-4)GlcNAc(b1-3)Gal(b1-4)Glc
In short: as §1

[14] = target: GlcNAc(a1-4)Gal(b1-4)GlcNAc(b1-3)Gal(b1-4)GlcNAc
In short: as §1

[15] = target: GlcNAc(a1-4)Gal(b1-4)GlcNAc(b1-3)Gal(b1-4)GlcNAc(b1-3)Gal(b1-4)GlcNAc
In short: as §1

[16] = target: GlcNAc(a1-4)Gal(b1-4)GlcNAc(b1-3)Gal(b1-4)[Fuc(a1-3)]GlcNAc(b1-3)Gal(b1-4)[Fuc(a1-3)]GlcNAc
In short: as §1

[17] = target: GlcNAc(a1-6)Gal(b1-4)GlcNAc
In short: as §1

[18] = target: GlcNAc(b1-2)Gal(b1-3)GalNAc
In short: as §1

[19] = target: GlcNAc(b1-2)Man(a1-3)[GlcNAc(b1-2)Man(a1-6)]Man(b1-4)GlcNAc(b1-4)GlcNAc
In short: as §1

[20] = target: GlcNAc(b1-2)Man(a1-3)[GlcNAc(b1-2)Man(a1-6)]Man(b1-4)GlcNAc(b1-4)[Fuc(a1-6)]GlcNAc
In short: as §1

[21] = target: GlcNAc(b1-2)Man(a1-3)[GlcNAc(b1-4)][GlcNAc(b1-2)Man(a1-6)]Man(b1-4)GlcNAc(b1-4)GlcNAc
In short: as §1

[22] = target: GlcNAc(b1-2)[GlcNAc(b1-4)]Man(a1-3)[GlcNAc(b1-2)Man(a1-6)]Man(b1-4)GlcNAc(b1-4)GlcNAc
In short: as §1

[23] = target: GlcNAc(b1-2)[GlcNAc(b1-4)]Man(a1-3)[GlcNAc(b1-4)][GlcNAc(b1-2)Man(a1-6)]Man(b1-4)GlcNAc(b1-4)GlcNAc
In short: as §1

[24] = target: GlcNAc(b1-2)[GlcNAc(b1-4)]Man(a1-3)[GlcNAc(b1-4)][GlcNAc(b1-2)[GlcNAc(b1-6)]Man(a1-6)]Man(b1-4)GlcNAc(b1-4)GlcNAc
In short: as §1

[25] = target: GlcNAc(b1-2)[GlcNAc(b1-6)]Man(a1-6)[GlcNAc(b1-2)Man(a1-3)]Man(b1-4)GlcNAc(b1-4)GlcNAc
In short: as §1

[26] = target: GlcNAc(b1-2)[GlcNAc(b1-6)]Man(a1-6)[GlcNAc(b1-2)Man(a1-3)][GlcNAc(b1-4)]Man(b1-4)GlcNAc(b1-4)GlcNAc
In short: as §1

GlcNAc(b1-3)Gal = target: GlcNAc(b1-3)Gal
In short: as §1

[27] = target: GlcNAc(b1-3)Gal(b1-3)GalNAc
In short: as §1

B1: Gz-CVNH (Gibberella zeae) (protein)
chain: MGSSHHHHHHSSGLVPRGSHMGNFHESSNNIWLEDGHILHAECGNGEGDYVESTLDLDYYIGNDDGSFSWGGENFSGSASNITLDIEGDDNIPVLRAELNPMDGDPVEANVNLSERIGNDCGTLIFLA
- glycan array binding signal (z-score) (Gal6S(b1-4)Glc6S): -0.139
- glycan array binding signal (z-score) (Gal6S(b1-4)GlcNAc): -0.159
- glycan array binding signal (z-score) (Gal6S(b1-4)GlcNAc6S): -0.111
- glycan array binding signal (z-score) (GalNAc(a1-3)Gal): -0.131
- glycan array binding signal (z-score) (GalNAc(a1-3)GalNAc): -0.151
- glycan array binding signal (z-score) [1]: -0.115
- glycan array binding signal (z-score) [2]: -0.158
- glycan array binding signal (z-score) (GalNAc(b1-3)Gal): -0.146
- glycan array binding signal (z-score) [3]: -0.175
- glycan array binding signal (z-score) [4]: -0.132
- glycan array binding signal (z-score) [5]: -0.12
- glycan array binding signal (z-score) (GalNAc(b1-3)GalNAc): -0.162
- glycan array binding signal (z-score) (GalNAc(b1-4)Gal(b1-4)Glc): -0.141
- glycan array binding signal (z-score) (GalNAc(b1-4)GlcNAc): -0.145
- glycan array binding signal (z-score) [6]: 0.031
- glycan array binding signal (z-score) (GalNAc(b1-6)GalNAc): -0.158
- glycan array binding signal (z-score) (Glc(a1-4)Glc): -0.146
- glycan array binding signal (z-score) [7]: -0.156
- glycan array binding signal (z-score) (Glc(a1-6)Glc(a1-6)Glc): -0.178
- glycan array binding signal (z-score) [8]: -0.125
- glycan array binding signal (z-score) (Glc(b1-4)Glc): -0.165
- glycan array binding signal (z-score) (Glc(b1-6)Glc): -0.117
- glycan array binding signal (z-score) (GlcA(b1-3)Gal): -0.144
- glycan array binding signal (z-score) (GlcA(b1-3)GlcNAc): -0.125
- glycan array binding signal (z-score) (GlcA(b1-6)Gal): -0.151
- glycan array binding signal (z-score) [9]: -0.169
- glycan array binding signal (z-score) [10]: -0.097
- glycan array binding signal (z-score) [11]: -0.117
- glycan array binding signal (z-score) [12]: -0.142
- glycan array binding signal (z-score) [13]: -0.133
- glycan array binding signal (z-score) [14]: 0.066
- glycan array binding signal (z-score) [15]: -0.131
- glycan array binding signal (z-score) [16]: 0.061
- glycan array binding signal (z-score) [17]: -0.154
- glycan array binding signal (z-score) [18]: -0.153
- glycan array binding signal (z-score) [19]: -0.129
- glycan array binding signal (z-score) [20]: -0.01
- glycan array binding signal (z-score) [21]: -0.119
- glycan array binding signal (z-score) [22]: -0.15
- glycan array binding signal (z-score) [23]: -0.119
- glycan array binding signal (z-score) [24]: -0.112
- glycan array binding signal (z-score) [25]: -0.104
- glycan array binding signal (z-score) [26]: -0.14
- glycan array binding signal (z-score) (GlcNAc(b1-3)Gal): -0.165
- glycan array binding signal (z-score) [27]: -0.101

Source: the supplement of paper PMC8728848
